Data from the supplement of paper PMC7826260.
The other results are listed elsewhere or left out. One pool of 16,384 single-stranded DNAs met each Rep nickase domain in vitro at 3 µM enzyme and 37 °C for 1 h; the strands have 90 letters, of which the middle is given. The score is log2 (uncut reads / reads without enzyme); uncut sequences lie near 0, cut ones below; no hit call is given. The scaling is to total reads, so uncut sequences can rise above 0 when many others are cut.

Legend:
Test in all cases: uncleaved DNA left, log2 of reads against the no-enzyme library (log2 ratio); higher = less cleavage (more negative = more Rep cleavage of the k-mer); sequences stand for … in CTCGTCCG…ACCGGAGA
[1] = tested on: T1, Rep nickase domain of Muscovy duck circovirus
T1 sequence (Rep 1-111, printed without the tag): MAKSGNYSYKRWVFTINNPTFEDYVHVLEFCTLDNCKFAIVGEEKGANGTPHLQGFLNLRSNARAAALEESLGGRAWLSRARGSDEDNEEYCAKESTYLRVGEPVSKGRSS
Experimental: (§1)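 A pool of 90-nt single-stranded DNAs with seven random bases just before the constant AC of the nick site (name = the seven bases) was cut by 3 µM recombinant His6-SUMO-tagged Rep nickase domain (300 nM DNA, 50 mM HEPES pH 8.0, 50 mM NaCl, 1 mM MnCl2, 1 h, 37 °C, three replicates). Uncut DNA was amplified and sequenced.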

[2] = tested on: T2, Rep nickase domain of banana bunchy top virus
T2 sequence (Rep 1-94, printed without the tag): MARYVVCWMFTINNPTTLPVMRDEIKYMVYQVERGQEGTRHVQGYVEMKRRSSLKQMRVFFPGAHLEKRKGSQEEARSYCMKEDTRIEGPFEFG
Experimental: as §1

[3] = tested on: T3, Rep nickase domain of cabbage leaf curl virus
T3 sequence (Rep 1-116, printed without the tag): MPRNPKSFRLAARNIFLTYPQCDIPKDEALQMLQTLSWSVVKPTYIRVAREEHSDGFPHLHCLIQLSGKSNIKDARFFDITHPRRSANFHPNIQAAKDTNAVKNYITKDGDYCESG
Experimental: as §1

[4] = tested on: T4, Rep nickase domain of chickpea chlorotic dwarf virus
T4 sequence (Rep 1-124, printed without the tag): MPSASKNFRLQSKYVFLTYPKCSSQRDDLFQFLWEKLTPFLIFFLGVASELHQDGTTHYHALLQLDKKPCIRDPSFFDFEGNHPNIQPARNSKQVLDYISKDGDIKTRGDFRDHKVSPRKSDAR
Experimental: as §1

[5] = tested on: T5, Rep nickase domain of faba bean necrotic yellows virus
T5 sequence (Rep 1-98, printed without the tag): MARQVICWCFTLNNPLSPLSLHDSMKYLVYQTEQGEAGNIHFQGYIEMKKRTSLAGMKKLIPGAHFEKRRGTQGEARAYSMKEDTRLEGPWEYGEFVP
Experimental: as §1

[6] = tested on: T6, Rep nickase domain of maize striate mosaic virus
T6 sequence (Rep 1-117, printed without the tag): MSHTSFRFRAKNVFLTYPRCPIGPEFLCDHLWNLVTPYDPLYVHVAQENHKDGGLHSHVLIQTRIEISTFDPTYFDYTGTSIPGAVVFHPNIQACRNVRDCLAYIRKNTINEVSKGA
Experimental: as §1

[7] = tested on: T7, Rep nickase domain of porcine circovirus 2
T7 sequence (Rep 2-116, printed without the tag): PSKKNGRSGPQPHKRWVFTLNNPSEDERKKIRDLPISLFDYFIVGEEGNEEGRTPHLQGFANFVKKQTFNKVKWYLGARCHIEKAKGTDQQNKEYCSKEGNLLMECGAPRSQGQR
Experimental: as §1

[8] = tested on: T8, Rep nickase domain of tomato golden mosaic virus
T8 sequence (Rep 1-124, printed without the tag): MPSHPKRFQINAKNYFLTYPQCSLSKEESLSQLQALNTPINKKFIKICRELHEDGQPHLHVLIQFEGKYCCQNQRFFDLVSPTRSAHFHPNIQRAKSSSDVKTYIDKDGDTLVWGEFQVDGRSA
Experimental: as §1

[9] = tested on: T9, Rep nickase domain of tomato yellow leaf curl virus
T9 sequence (Rep 1-136, printed without the tag): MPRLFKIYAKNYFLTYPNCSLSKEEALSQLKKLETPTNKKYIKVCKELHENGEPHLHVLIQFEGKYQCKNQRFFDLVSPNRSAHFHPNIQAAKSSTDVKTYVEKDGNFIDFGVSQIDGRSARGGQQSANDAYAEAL
Experimental: as §1

[10] = tested on: T10, Rep nickase domain of wheat dwarf virus
T10 sequence (Rep 1-137, printed without the tag): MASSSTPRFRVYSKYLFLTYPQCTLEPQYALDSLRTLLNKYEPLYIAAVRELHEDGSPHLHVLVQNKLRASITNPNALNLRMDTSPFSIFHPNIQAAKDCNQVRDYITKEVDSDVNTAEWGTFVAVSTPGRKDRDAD
Experimental: as §1

Sequence | uncleaved DNA left (log2) [1] | uncleaved DNA left (log2) [2] | uncleaved DNA left (log2) [3] | uncleaved DNA left (log2) [4] | uncleaved DNA left (log2) [5] | uncleaved DNA left (log2) [6] | uncleaved DNA left (log2) [7] | uncleaved DNA left (log2) [8] | uncleaved DNA left (log2) [9] | uncleaved DNA left (log2) [10]
CGTTCTA | -0.0192 | 0.0464 | 0.113 | -0.28 | -0.0616 | -0.0292 | -0.201 | 0.00649 | 0.0849 | -0.0487
ATGTGAT | 0.0723 | 0.0103 | 0.166 | 1.47 | -0.0211 | 1.73 | -0.471 | 0.0968 | -0.0621 | 0.0726
GTGATAC | -0.143 | -0.0272 | 0.0889 | 0.711 | -0.163 | 1.73 | -0.088 | -0.0194 | -0.0264 | -0.00385
AGAACAC | 0.0113 | 0.104 | 0.18 | 0.191 | 0.0585 | 0.289 | 0.105 | -0.0697 | 0.0616 | 0.159
TGTCGAT | 0.0924 | 0.0654 | 0.0158 | 0.252 | 0.0126 | 0.106 | -0.0698 | 0.0844 | 0.103 | 0.118
CTCGCCC | -0.142 | -0.165 | -0.066 | -0.283 | -0.0699 | -0.369 | -0.339 | -0.0404 | -0.284 | -0.26
ACACGCA | 0.0695 | -0.0246 | -0.598 | -0.938 | 0.00578 | -0.918 | 0.173 | -0.0214 | 0.00535 | -0.0455
CTATTCA | -0.186 | -0.0391 | -0.299 | -1.28 | -0.0491 | -0.954 | -0.187 | -0.0757 | 0.0409 | 0.101
GGGCGAT | 0.0749 | 0.00061 | 0.825 | 1.82 | 0.0442 | 2.17 | 0.184 | -0.0524 | 0.00849 | 0.0563
AGTATGG | 0.103 | 0.0504 | 0.0669 | 0.336 | 0.0577 | -0.33 | 0.243 | 0.121 | 0.121 | 0.088
TTTATAC | -0.173 | -0.0275 | 0.234 | -0.531 | -0.0284 | -0.189 | -0.0847 | -0.0683 | -0.0211 | 0.0777
CATACTT | -0.383 | -3.19 | -0.617 | -3.11 | 0.0148 | -0.583 | -3.18 | -0.0574 | -0.0284 | -0.0669
GTCCATC | -0.0852 | 0.0582 | 0.333 | 0.982 | -0.0658 | 1.42 | 0.0341 | 0.0395 | -0.0236 | 0.0895
GTCCAGT | 0.0973 | -0.0202 | 0.336 | 0.795 | -0.148 | 1.54 | 0.0879 | 0.0419 | 0.0845 | 0.0949
ATGAAAC | 0.0632 | 0.097 | -0.0809 | -0.271 | 0.0366 | -0.663 | 0.151 | -0.0279 | 0.0221 | 0.0637
GCGTAAG | 0.0543 | 0.104 | -0.142 | 0.0267 | 0.066 | -0.725 | 0.0969 | 0.145 | 0.0186 | -0.0972
AATGATT | -0.0133 | -0.191 | -0.292 | -2.14 | -0.0658 | 0.661 | -1.78 | -0.0305 | -0.159 | -0.0294
AGAAATC | 0.000925 | 0.0854 | 0.347 | 0.663 | 0.127 | 0.00751 | 0.133 | 0.041 | 0.0422 | 0.12
TCGTTCG | -0.0233 | -0.204 | -0.864 | -0.643 | -0.168 | -1.18 | 0.0147 | -0.261 | -0.12 | -0.145
TCCATTT | -0.0435 | -0.0895 | -0.0608 | -2.13 | 0.0597 | -0.975 | -0.319 | -0.019 | 0.000511 | -0.0591
GGCCTTT | 0.17 | 0.101 | 0.513 | 1.11 | 0.158 | 1.81 | 0.0945 | -0.133 | 0.064 | 0.133
GGGGTAC | 0.0538 | 0.0485 | 0.715 | 1.65 | 0.0792 | 2.21 | 0.212 | 0.0375 | -0.0144 | 0.0853
AGCAAGC | -0.0381 | 0.0035 | 0.00661 | 0.136 | 0.0964 | -0.625 | 0.0949 | -0.0151 | 0.0173 | 0.0336
TGAGACG | -0.0398 | 0.0639 | -0.427 | -0.417 | 0.104 | -0.614 | 0.0667 | 0.0523 | -0.019 | -0.0239
TCGTCTG | 0.0522 | 0.0384 | 0.0352 | 0.648 | 0.0422 | 1.33 | 0.0812 | -0.0322 | -0.0101 | 0.0704
TGGTAGG | 0.0849 | 0.00837 | 0.327 | 0.889 | 0.0369 | 0.936 | 0.064 | 0.0152 | 0.0664 | 0.045
TTGGGGA | -0.0278 | -0.169 | 0.299 | 0.674 | 0.0654 | 0.617 | 0.151 | -0.0751 | -0.0476 | -0.0182
GTTCGTA | -0.0169 | 0.1 | 0.314 | 0.801 | 0.032 | 1.66 | 0.0506 | 0.0116 | 0.0224 | 0.0808
TGTATCA | 0.0179 | 0.149 | 0.505 | 0.62 | 0.0364 | 1.29 | 0.0347 | 0.0779 | 0.179 | 0.203
AATCCTC | -0.0296 | -0.059 | 0.189 | -0.0473 | 0.0965 | 0.0659 | -0.116 | 0.00275 | -0.0122 | 0.0299
